Screen size: about 43,000 compounds; about 200 (0.47%) were called active. About 12% were inconclusive and are not listed. Calls come from the whole dose curve; as a rule, active = well fitted cell-killing curve with a large enough effect; inconclusive = small, poorly fitted or top-dose-only effect, or effect the other way; inactive = flat fitted curve, though single readings scatter. Some of the results follow.
Assay: Cell viability qHTS assay in S16 Pmp22-F2sN cells; note: nearly all actives have a fitted effect of over 65% in size
Conditions: S16 Pmp22-F2sN Schwann cells (luciferase reporters placed in the Pmp22 gene) viability, CellTiter-Glo, 24 h; series mostly up to 57.5 µM; activity change, negative = cytotoxicity: at the top concentration
Outline: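 Rat S16 Schwann reporter line, 24 h treatment with library compounds delivered at 23 nL per well. Cell viability by CellTiter-Glo luminescence.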
% is set by controls: 0 for no effect and ±100 for the full control effect.

SMILES	activity change, negative = cytotoxicity
CCOc1ccc(NC(=O)C(C)n2c(=O)cc(-c3ccccc3)c3c(C)nn(C)c32)cc1 (stereo unspecified)	inactive: 14.3%
COc1ccccc1N1CCN(C(=O)Cn2c(=O)nc(-c3ccccc3)c3ccccc32)CC1	inactive: -20.2%
O=C(CN1C(=O)COc2ccc(S(=O)(=O)NC3CCCC3)cc21)NCc1ccccc1Cl	inactive: 3.49%
CCOC(=O)c1ccc(NC(=O)C2=C(C)C(=O)OC23CCN(C(C)=O)CC3)cc1	inactive: 0.818%
Cc1ccc(Cl)cc1NC(=O)CCn1cnc2ccccc2c1=O	inactive: -1.42%
COc1cc(Nc2nc3ccc(Cl)cc3nc2-n2nc(C)cc2C)cc(OC)c1	inactive: 4.42%
CCOC(=O)c1cccc(NC(=O)c2cc(C)nc3c2c(C)nn3-c2ccc(C)cc2)c1	inactive: -2.28%
Cc1cc(C)cc(NC(=O)C(=O)NCC(c2cccnc2)N2CCOCC2)c1 (stereo unspecified)	inactive: -11.1%
CCc1cccc(C)c1NC(=O)CSc1n[nH]c(-c2ccccc2)n1	inactive: -9.76%
Cn1ncc2c(Nc3cccc(C#N)c3)ncnc21	inactive: -6.71%
O=C(CCn1c(=O)c2cccn2c2cccnc21)NCc1cccc(Br)c1	inactive: 13.9%
CC(=O)c1cc2c(cc1N/C(=N/S(=O)(=O)c1ccc(C)cc1)c1ccc(Cl)cc1)OCO2	inactive: -6.62%
Cc1ccc2c(=O)cc(C(=O)Nc3ccc(S(=O)(=O)N4CCCC(C)C4)cc3)oc2c1C (stereo unspecified)	inactive: 2.84%
CCOc1ccc(NC(=O)c2oc3ccccc3c2NC(=O)C(C)Oc2ccccc2)cc1 (stereo unspecified)	inactive: 3.08%
Cc1ccc(C)c(CN2C(=O)c3ccccc3S(=O)(=O)c3ccc(C(=O)N4CCN(Cc5ccccc5)CC4)cc32)c1	inactive: -9.89%
Cc1cccc(C)c1NC(=O)CSc1nccn1C	inactive: 5.55%
CC(C)Cn1c(SCc2cccc(F)c2)nc2ccsc2c1=O	inactive: 3.32%
CCOCCCn1c(SCC(=O)Nc2ccccc2OC)nc2c(oc3ccccc32)c1=O	inactive: -10.5%
COc1ccccc1C1=Nn2c(nc3sc(C(=O)Nc4ccccc4Cl)c(C)c3c2=O)SC1	inactive: 3.23%
Cc1ccc(C)c(C(=O)N2CCC(c3nc4c(nnn4Cc4ccccc4)c(=O)[nH]3)CC2)c1	inactive: 12.2%
CC(NC(=O)c1c(O)nc2ccccn2c1=O)c1ccccc1 (stereo unspecified)	inactive: -13.6%
CCOc1ccccc1N1CC(c2nc3ccccc3n2CCCCOc2ccccc2)CC1=O (stereo unspecified)	inactive: 0.0605%
COc1ccc(OC)c(C2CC(=O)Nc3ccc4ccccc4c32)c1 (stereo unspecified)	inactive: -22.9%
COc1ccc(-c2cn3c(n2)sc2cc(C(=O)NCc4ccccc4)ccc23)cc1	inactive: -2.84%

SMILES	activity change, negative = cytotoxicity
COc1ccc(Cc2nc3ccc(C(=O)NCCc4ccc(Cl)cc4)cc3o2)cc1	inactive: -3.03%
CCN(C(=O)CCS(=O)(=O)c1cc(Br)cc2c1N(C(=O)C1CC1)CC2)c1cccc(C)c1	inactive: -5.89%
O=C(NC1CC(=O)N(c2ccc(Cl)cc2)C1)C1CCCCC1 (stereo unspecified)	inactive: 6.53%
CCOc1ccc(Nc2oc(/C=C/c3cc(OC)c(OC)c(OC)c3)nc2C#N)cc1	inactive: -1.31%
COc1ccc(NC(=O)CN(C)S(=O)(=O)c2cnc[nH]2)cc1	inactive: -3.13%
CCOc1ccc(NC(=O)CSc2nc3ccccc3c(=O)n2CCC(=O)NC2CCCCC2)cc1	inactive: -17.7%
O=C(COC(=O)c1cc(-c2cccs2)nc2ccccc12)c1ccc(Cl)cc1	inactive: 9.61%
COc1cc(C(=O)NCCSc2c(C)[nH]c3ccccc23)cc(OC)c1OC	inactive: 0.232%
O=C(O)CSc1nc2ccccc2nc1N1CCCCC1	inactive: -4.72%
COc1ccc(CCNC(=O)CSc2cn(CCNC(=O)c3ccc(OC)c(OC)c3)c3ccccc23)cc1OC	inactive: 8.36%
COC(=O)c1c(NC(=O)/C(C#N)=C/c2ccc(OC)cc2)sc2c1C(C(=O)OC)CC2 (stereo unspecified)	inactive: 5.28%
CCc1ccccc1NC(=O)[C@H](Cc1ccccc1)N1Cc2ccccc2C1=O	inactive: 4.17%
COc1ccc(-c2noc(C3CC(=O)N(c4ccc5c(c4)OCCO5)C3)n2)c(OC)c1 (stereo unspecified)	inactive: -14.3%
CCOC(=O)c1sc(NC(=O)c2nc3nc(C)cc(C(F)F)n3n2)c(C(=O)OC)c1C	inactive: 10.3%
CCC(C)NC(=O)Cn1cnc2sc(C)c(S(=O)(=O)N3CCN(c4ccccc4OC)CC3)c2c1=O (stereo unspecified)	inactive: 7.73%
Cc1c(C(=O)Nc2cccc(Cl)c2)oc2ccc(S(=O)(=O)N3CCOCC3)cc12	inactive: 1.88%
COc1cccc(NC(=O)N2CCC(CN3CCOCC3)CC2)c1	inactive: -11.7%
CCc1ccccc1NC(=O)Cn1c(=O)ccc2cc(S(=O)(=O)N3CCC(C)CC3)ccc21	inactive: 1.51%
Cc1ccc(CCNC(=O)CN2N=C(c3ccc(C)cc3)CCC2=O)cc1	inactive: 7.92%
Cc1cccc(N2CCN(S(=O)(=O)c3c(C)nc4scc(C)n4c3=O)CC2C)c1 (stereo unspecified)	inactive: -2.65%
Cn1nc(C(=O)Nc2ccccc2C#N)c2c1-c1ccccc1SC2	inactive: 19.2%
CCOc1cccc(C2c3c(oc4cc(C)c(C)cc4c3=O)C(=O)N2c2nc(C)c(C)s2)c1 (stereo unspecified)	inactive: -13.8%
CC1CCN(S(=O)(=O)c2ccc3c(c2)N(CC(=O)Nc2ccc(F)c(Cl)c2)C(=O)CO3)CC1	inactive: 0.211%
COc1ccc(NC(=O)c2oc3ccccc3c2NC(=O)Cc2ccc(F)cc2)c(OC)c1	inactive: 1.87%

SMILES	activity change, negative = cytotoxicity
Cc1cc(=O)[nH]c(SCC(=O)N2CCN(c3ccccc3)CC2)n1	inactive: 11%
COc1ccc(-c2nc3ccc(C(=O)NCc4ccc(C)cc4)cc3nc2-c2ccc(OC)cc2)cc1	inactive: -10.4%
COc1ccc(Cl)cc1-n1c(CCC(=O)O)ccc1-c1ccc(C)cc1	inactive: -0.171%
Cc1ccc(OCCn2c(COc3ccc(Cl)cc3)nc3ccccc32)cc1	inactive: 2.5%
CCC(=O)N1CCc2cc(CNS(=O)(=O)c3cc(Cl)ccc3OC)ccc21	inactive: 10.7%
COc1ccc(Br)cc1CNC(=O)CCSCc1ccc(Cl)cc1	inactive: -6.86%
Cc1nn(CC(=O)N2CCN(c3ccccc3)CC2)c(=O)c2cc3sccc3n12	inactive: -2.63%
CCCCCSc1nnc2c(n1)OC(c1ccc(C)s1)N(C(C)=O)c1ccccc1-2 (stereo unspecified)	inactive: -20.4%
COc1ccc(S(=O)(=O)NC2(C(F)(F)F)NC(=O)N(CCc3ccccc3)C2=O)cc1 (stereo unspecified)	inactive: 3.35%
COc1ccccc1NC(=O)CN1C(=O)C(c2ccc(F)cc2)=NC1(C)C	inactive: -0.415%
Cc1cccc(N2CCN(C(=O)Nc3ccc(F)cc3)CC2C)c1 (stereo unspecified)	inactive: -5.3%
Cc1ccccc1NC(=O)Nc1nnc(N(C)Cc2ccccc2)s1	inactive: -6.21%
Oc1ccccc1-c1nc(/C=C/c2ccc(F)cc2)no1	inactive: -4.03%
Cc1c(Cl)cccc1N1CC(c2nc3ccccc3n2Cc2ccccc2F)CC1=O (stereo unspecified)	inactive: -3.79%
O=c1c2oc3ccccc3c2n(Cc2ccccc2F)c(=O)n1Cc1ccco1	inactive: -4.11%
Cc1c(CNCCCc2ccccc2)c(C(=O)O)c(C)n1Cc1ccc(Cl)cc1	inactive: -2.87%
Cc1ccc(Cn2cc(CCC(=O)NC3CCCCC3)c3ccccc32)cc1	inactive: -9.52%
Cc1cc(=O)[nH]c2nnc(SCc3cccc(F)c3)n12	inactive: -23.1%
CCOc1ccc(-c2ccc(NS(=O)(=O)c3cc(C)ccc3OC)cc2)nn1	inactive: -17.8%
Cc1ccc(N2CCN(C(=O)c3nn(C)c4c3CS(=O)(=O)c3ccccc3-4)CC2C)cc1 (stereo unspecified)	inactive: -17.6%
Cc1cccc(NC(=O)Cn2c(=O)n(Cc3ccc4c(c3)OCO4)c(=O)c3ccccc32)c1	inactive: 0.406%
CCS(=O)(=O)c1c(Nc2ccc(F)c(Cl)c2)sc(C(=O)c2ccccc2)c1N	inactive: -9.54%
COc1ccc(-n2cc3c(c2-c2cccc(Br)c2)c(=O)n(C)c(=O)n3C)cc1OC	inactive: 7.32%
COc1cccc(NC(=O)Cn2c(=O)n(Cc3ccccc3)c(=O)c3c4c(sc32)CN(C(C)=O)CC4)c1	inactive: -7.04%

SMILES	activity change, negative = cytotoxicity
COC(=O)c1ccccc1NC(=O)c1nc(SCc2ccccc2C)ncc1Cl	inactive: -3.65%
Cc1cc(C)cc(C(=O)Nc2ccc(-c3cn4cccnc4n3)cc2)c1	inactive: -7.23%
O=C(O)c1cccc(NC(=O)c2cccc(S(=O)(=O)Nc3cccc(C(=O)O)c3)c2)c1	inactive: -4.74%
CCn1c(=O)c2cc(C(=O)N(C)c3cc(C)ccc3C)sc2c2ccccc21	inactive: 4.54%
O=C(CCSCc1ccccc1F)N1CCN(c2ccc(F)cc2)CC1	inactive: 5.21%
CCOc1ccccc1NC(=O)Cn1c(=O)n(Cc2ccc(C(=O)NCCCOC)cc2)c(=O)c2ccccc21	inactive: -13.8%
COc1cc(OC)c(NC(=O)c2oc3ccc4c(c3c2C)C(=O)CC(C)(C)O4)cc1Cl	inactive: 3.75%
COc1ccc(NC(=O)c2ccc3snnc3c2)cc1OC	inactive: 8.72%
CN(C)C(=O)c1ccc(S(=O)(=O)NCc2ccccc2Cl)s1	inactive: 8.98%
COc1cc(OC)cc(-n2c(=O)[nH]c3cc(C(=O)NCCc4ccc(C)cc4)ccc3c2=O)c1	inactive: -4.23%
CCN(C(=O)c1sc2nc3n(c(=O)c2c1C)CCCCC3)c1ccccc1F	inactive: -21.1%
Cc1ccc(NC(=O)Nc2nnc(N3CCCCC3)s2)c(C)c1	inactive: -5.1%
CCc1ccc(CNC(=O)c2cc3c(=O)oc4ccc(C)cc4c3s2)cc1	inactive: 0.471%
COCCCNC(=O)Cn1c(=O)n(CCCC(=O)NCc2ccc(C)cc2)c(=O)c2ccccc21	inactive: -5.15%
CCCC(=O)N(c1ccc2oc(-c3ccccc3)c(C(=O)OCC)c2c1)S(=O)(=O)c1ccc(C)cc1	inactive: -7.49%
O=C(NCC(c1ccc2c(c1)OCO2)N1CCOCC1)c1ccc(F)cc1 (stereo unspecified)	inactive: 1.28%
CCCCN1CC(c2nc3ccccc3n2CCCCOc2c(C)cccc2C)CC1=O (stereo unspecified)	inactive: -2.2%
CC1=C(c2ccc(C)c(C)c2)S(=O)(=O)N=C1N1CCN(c2cccc(C(F)(F)F)c2)CC1	inactive: 17.9%
Cc1ccc(NC(=O)Cn2c(=O)n(-c3ccc(CC(=O)NCC4CCCO4)cc3)c(=O)c3ccccc32)cc1 (stereo unspecified)	inactive: 18.8%
CCOc1ccc(-n2c(=O)c3c4c(sc3n(Cc3cccc(Cl)c3)c2=O)CCCC4)cc1	inactive: 6.06%
COc1ccc(-c2nn(-c3ccccc3)cc2C(=O)Nc2ccccc2OC)cc1	inactive: 27.8%
CCn1cc(C(=O)N2CCN(c3ccccc3OC)CC2)c(=O)c2cc(S(=O)(=O)N3CCCCC3)ccc21	inactive: -6.5%
Cc1cccc(C(=O)Nc2ccccc2-c2nc(-c3ccccc3)no2)c1	inactive: 1.31%
CCOc1ccc(Sc2cc(C(=O)NCCc3ccc(OC)c(OC)c3)c3ccccc3n2)cc1	inactive: 13.3%
